Laboratory results published in PMC6919601, “Identification of Plasmodium dipeptidyl aminopeptidase allosteric inhibitors by high throughput screening” (PLoS ONE, 2019).
Out of some 110,000 compounds screened, about 230 (0.21%) showed an effect of 50% or more. The list shows a part of the results.

Molecular target: DPAP1 (Plasmodium falciparum, UniProt Q8IIJ9)
Test: primary screen, percent inhibition; read by cleavage of a fluorogenic dipeptide substrate; higher = more effect of the substance
Design: species or system P. falciparum D10 trophozoite lysates; single well
Procedure: HTS was performed in black 384-well plates. The first and last two columns of each plate contained our negative (DMSO) and positive (10 μM JCP410) controls, and the 20 central columns the test compounds at 10 μM. Compounds were first diluted 50-fold into assay buffer (50 mM sodium acetate, 5 mM MgCl2, 10 mM β-mercaptoethanol, and 0.1% CHAPS, pH 5.5) from a 10 mM DMSO stock plates. One microliter of this 200 μM intermediate stock plate was dispensed into the assay plate. […] After 30 min, the reaction was quenched with 20 μL of 0.5 M acetic acid, and the fluorescent intensity measured at 523 nm (λex = 492 nm) using an Analyst HT multimode plate reader (Molecular Devices).
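Further: 30 min substrate incubation versus DMSO and 10 µM JCP410 controls.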

Sequence of DPAP1 (Q8IIJ9 whole entry, looked up): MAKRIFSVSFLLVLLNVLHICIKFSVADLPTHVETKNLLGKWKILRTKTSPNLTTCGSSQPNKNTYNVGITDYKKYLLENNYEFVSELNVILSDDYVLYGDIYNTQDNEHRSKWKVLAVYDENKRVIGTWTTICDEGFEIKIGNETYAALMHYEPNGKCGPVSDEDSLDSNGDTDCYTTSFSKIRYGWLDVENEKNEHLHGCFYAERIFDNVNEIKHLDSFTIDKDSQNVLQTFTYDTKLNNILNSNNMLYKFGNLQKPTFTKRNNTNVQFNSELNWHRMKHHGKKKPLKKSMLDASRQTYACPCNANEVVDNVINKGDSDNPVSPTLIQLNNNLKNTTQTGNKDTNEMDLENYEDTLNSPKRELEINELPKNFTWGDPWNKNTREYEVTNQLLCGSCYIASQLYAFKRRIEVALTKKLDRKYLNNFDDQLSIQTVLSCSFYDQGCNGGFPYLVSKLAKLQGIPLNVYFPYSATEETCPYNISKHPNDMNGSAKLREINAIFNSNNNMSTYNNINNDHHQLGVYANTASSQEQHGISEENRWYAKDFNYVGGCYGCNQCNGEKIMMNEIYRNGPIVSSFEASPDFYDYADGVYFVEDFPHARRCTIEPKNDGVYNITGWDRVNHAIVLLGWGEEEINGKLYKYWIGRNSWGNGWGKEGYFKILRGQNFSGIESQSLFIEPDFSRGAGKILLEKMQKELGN

SMILES	% Inhibition @ 10 uM [%]
Cc1cc(C)c(CN2C(=O)c3ccccc3C2=O)c(C)c1	4.32
Cc1oc(-c2cccc(Cl)c2)nc1CN1CCCC(C(=O)NCc2cccs2)C1 (centres unmarked)	-8.65
CCOc1ccc(C2c3c(-c4ccccc4O)n[nH]c3C(=O)N2CCO)cc1 (centres unmarked)	-4.95
C=CCNC(=O)c1ccccc1NC(=O)c1ccco1	0.512
Cc1ccc(-c2csc(-c3cc4ccccc4oc3=O)n2)cc1	-4.21
Nn1c(S)nnc1-c1ccccc1	1.63
Cc1ccccc1CN1CCN(CC(=O)NCC2CCCO2)C1=O (centres unmarked)	-5.67
O=C1c2oc3ccccc3c(=O)c2C(c2ccc(F)cc2)N1c1nccs1 (centres unmarked)	-8.95
C1=C(c2ccc(-c3ccccc3)cc2)N2CCCCN=C2S1	-4.68
CC(C)C[C@H](NC(=O)OCc1ccccc1)C(=O)N[C@H](/C=C/[N+](=O)[O-])CCc1ccccc1	0.744
CN1C(=O)C2Cc3c([nH]c4ccccc34)C(c3cccc(Cl)c3Cl)N2C1=S (centres unmarked)	4.89
Cc1ccc(S(=O)(=O)NCCc2nnc3ccc(SCC(=O)N4CCOCC4)nn23)cc1	-7.14
Fc1ccc(N2CCN(Cc3cccc(F)c3)CC2)cc1	1.48
NC1=NC(=O)/C(=C/c2cc(Br)ccc2OCc2ccccc2)S1	4.1
CC1=C(C(N)=O)C(c2ccc(O)cc2)n2nc(-c3cccc(C)c3)nc2N1 (centres unmarked)	-1.47
C=CCN(C(=O)Nc1ccc2oc(C)nc2c1)c1ccccc1	-6.41
O=C(CC(C(=O)O)N1CCOCC1)c1ccccc1 (centres unmarked)	34.3
CC1(C)CC2=Nc3ccccc3NC(c3cccc(O)c3O)C2=C(O)C1 (centres unmarked)	-2.78
COCCN1C(=O)c2ccccc2C(C(=O)Nc2cccc(C)n2)C1c1ccc(F)cc1 (centres unmarked)	2.06
N=c1nc(N)nc(Nc2ccccc2)n1-c1ccccc1	6.4
O=c1oc2ccccc2n1Cc1ccc(F)cc1Cl	4
CN(CCCNC(=O)Cn1ncc2c3ccccc3n(Cc3ccccc3)c2c1=O)Cc1ccccc1	-1.58
Cc1cccc(Oc2nc3c(C)cccn3c(=O)c2/C=C(\C#N)C(=O)NC2CCS(=O)(=O)C2)c1C (centres unmarked)	0.315
CC1=C(C(=O)OCC(C)C)C(c2ccc(F)cc2)NC(=O)N1 (centres unmarked)	-3.35
CCCCN(C)C1CCN(Cc2ccccc2)CC1	-4.14

SMILES	% Inhibition @ 10 uM [%]
COc1cccc(CN2CCC(Cc3ccccc3)CC2)c1	3.25
Cc1ccccc1CN1CCN(c2ccc(F)cc2)CC1	-3.56
CCCn1c2ccccc2c2cnn(CC(=O)Nc3ccc(NC(C)=O)nc3)c(=O)c21	0.721
COc1ccc(S(=O)(=O)c2c(-c3ccccc3)cn3ccccc23)cc1	-2.96
Cc1[nH]c2ccccc2c1C(=O)/C=C/c1ccccc1	3
CCOC(=O)c1cn(CC)c2cc(N3CCCCC3)c(F)cc2c1=O	2.16
Cc1cccc(-n2ncc3c(NCCCn4ccnc4)ncnc32)c1	11
Cc1nnc(NC(=O)CSc2nnc(Cc3cccn3C)n2C)s1	-2.45
Clc1ccccc1COc1ccccc1CNCC1CCCO1 (centres unmarked)	0.163
COc1ccc(C2=NOC(C(=O)NCCCN3CCOCC3)C2)cc1 (centres unmarked)	-3.45
CC(C)=CCC12CN3CCN(CC(C3)C1O)C2 (centres unmarked)	-3.64
CCN1CCN(C(=O)Nc2cn(C)c(=O)c3ccccc23)CC1	-0.0579
CCN(CC)c1ccc(C(=O)NC(CCC(C)C)C(=O)NCC#N)cc1 (centres unmarked)	-5.64
CCOC(=O)c1sc(N2C(=O)C(O)=C(C(=O)c3ccco3)C2c2ccc(OC)c(OC)c2)nc1C (centres unmarked)	-1.25
Cc1cccc(NC(=O)CN(c2ccc(Cl)cc2C)S(C)(=O)=O)c1	-5.99
Cc1cccc(NC(=O)Cc2cccc3ccccc23)c1C	-3.03
COCC(C)NC(=O)C1=CC(c2ccco2)=NS(=O)(=O)N1C (centres unmarked)	2.32
Cc1cc(NS(=O)(=O)c2ccc(NC(=O)Nc3ccc(Cl)cc3)cc2)no1	2.42
COc1ccc(Cn2c(C(=O)O)c(CNC3CCCCCC3)c3ccc(C)cc32)cc1	-0.537
CC1CCC2(CC1)N=C(c1ccc(Cl)cc1Cl)C(=O)N2 (centres unmarked)	1.16
CCC(C)c1ccc(NC(=O)c2cn(C)nc2C)cc1 (centres unmarked)	-2.99
Cc1ccc(S(=O)(=O)N(CC(=O)NC(C)(C)C)c2cc(Cl)ccc2C)cc1	4.25
O=[N+]([O-])c1ccccc1N1CCCCC1	-6.27
COc1cc(CNc2ccc(C(=O)O)cc2)ccc1OCc1ccccc1	-0.95
CSc1ccc(-c2cccc(C(=O)N[C@@H](CC(C)C)C(=O)NCC#N)c2)cc1	-10.7
